Hit rate of the full screen: of about 150,000 compounds, about 540 (0.36%) showed an effect of 50% or more. Some of the results follow.
Tested on: Plasmodium falciparum
Experiment: Primary screen in NF54 nanoGlo assay, in single point, at 2uM, 72h; a lower Z score goes with more inhibition
Assay type: functional, Erythrocyte
Details: timepoint 72 hour

**Q.** With `CC(C)c1cc(C(=O)N(CCOc2ccccc2)C[C@H]2CCCO2)no1` as the compound, how does the “% Inhibition” value read?
**A.** -2%

**Q.** What about the Z score of the same compound?
**A.** 0.49

**Q.** For `O[C@@H](Cn1cnnc1)c1ccc(Br)cc1`, which “% Inhibition” value is on record?
**A.** 0%

**Q.** And the Z score?
**A.** 0.02

**Q.** For `O=C1CCCc2nc(NC(=O)C3CC3c3c(F)cccc3F)sc21` (stereo not drawn), which “% Inhibition” value is on record?
**A.** -8%

**Q.** What about the Z score of the same compound?
**A.** 1.53

**Q.** What does the source list for `Cc1ccc(OCCN)c(C(=O)N2C[C@@H]3[C@H]4CC[C@H](CC4)[C@@H]3C2)c1`?
**A.** % Inhibition: -11%; Z score: 1.48

**Q.** Which results are given for `COCCCN1C(=O)C[C@](CC(=O)N2CCN(c3ccc(C(C)=O)cc3)CC2)(c2ccccc2)C1=O`?
**A.** % Inhibition: -4%; Z score: 0.44

**Q.** What does the source list for `O=C1CC[C@@H](CN(Cc2cccnc2)C(=O)c2c[nH]nc2-c2ccccc2)N1`?
**A.** % Inhibition: -6%; Z score: 0.85

**Q.** With `CCCc1nnsc1C(=O)N1CC[C@H](n2ccnn2)C1` as the compound, how does the “% Inhibition” value read?
**A.** -8%

**Q.** And the Z score?
**A.** 1.36

**Q.** Which “% Inhibition” value does the source give for `CCc1ocnc1C(=O)N1CCC[C@@]2(CCC(=O)N(Cc3cccnc3)C2)C1` here?
**A.** -9%

**Q.** And the Z score?
**A.** 1.96

**Q.** Which results are given for `COc1cccc(CN2C[C@@H]3C[C@H]2C(=O)NC[C@H]2O[C@H](CCOc4cc(-c5cnn(C)c5)ccc4C(=O)N3)CC[C@@H]2O)c1`?
**A.** % Inhibition: 3%; Z score: -0.37

**Q.** With `CC1CN(CCC2CCN(CCc3cccnc3)CC2)CC(C)O1` (stereo not drawn) as the compound, how does the “% Inhibition” value read?
**A.** -9%

**Q.** What about the Z score of the same compound?
**A.** 1.75

**Q.** Which “% Inhibition” value does the source give for `Cc1ccn(Cc2ncc(C(C)(C)C)o2)c(=O)c1C#N` here?
**A.** -5%

**Q.** And the Z score?
**A.** 0.51

**Q.** How did the “% Inhibition” value turn out when `CCc1cnc(N(C)Cc2noc(C(C)C)n2)nc1` was run?
**A.** -9%

**Q.** And the Z score?
**A.** 0.92

**Q.** What does the source list for `Cn1c(C(=O)N2C3CCC2CC(CC(F)(F)F)C3)c[nH]c1=O` (stereo not drawn)?
**A.** % Inhibition: -6%; Z score: 1.21

**Q.** With `O=S(=O)(c1cnc2ccccn12)N(Cc1cccnc1)C1CC1` as the compound, how does the “% Inhibition” value read?
**A.** 0%

**Q.** What about the Z score of the same compound?
**A.** -0.07

**Q.** Which results are given for `CCCn1cc(-c2ccnc(NCCCN(C)C)n2)c(C)n1`?
**A.** % Inhibition: -14%; Z score: 1.36

**Q.** What does the source list for `CCN(CC)S(=O)(=O)NCc1cncc(F)c1`?
**A.** % Inhibition: 7%; Z score: -1.32

**Q.** What does the source list for `CCS(=O)(=O)N1CCN(C(=O)c2cc3c(C)cccn3c2)[C@H](C)C1`?
**A.** % Inhibition: 0%; Z score: 0

**Q.** For `O=C(NCc1ccc(N2CCCC2=O)cc1)c1cn(CCc2ccccc2)nn1`, which “% Inhibition” value is on record?
**A.** -10%

**Q.** And the Z score?
**A.** 0.96

**Q.** `Cc1csc([C@@H](NS(C)(=O)=O)C2CC2)n1` was tested. Which “% Inhibition” value did it give?
**A.** 4%

**Q.** And the Z score?
**A.** -0.59

**Q.** Which results are given for `Cc1ccc(C(=O)NCc2cc(C)on2)c(=O)[nH]1`?
**A.** % Inhibition: -15%; Z score: 1.34

**Q.** How did the “% Inhibition” value turn out when `CC(=O)Nc1ccc(S(=O)(=O)Nc2cc(C(=O)N3CCC(C)CC3)ccc2N2CC3CC(C2)c2cccc(=O)n2C3)cc1` (stereo not drawn) was run?
**A.** -13%

**Q.** And the Z score?
**A.** 2.19

**Q.** Which results are given for `CCCNC(=O)N1CCN(c2nc(COC)nc3c2c(C)nn3-c2ccccc2)CC1`?
**A.** % Inhibition: -6%; Z score: 0.63

**Q.** For `c1ccc(C[C@H](NCc2ccco2)C2CC2)nc1`, which “% Inhibition” value is on record?
**A.** -7%

**Q.** And the Z score?
**A.** 1.23

**Q.** Which results are given for `CCOC(=O)c1cnc(N(C)OC)s1`?
**A.** % Inhibition: 7%; Z score: -0.89

**Q.** For `O=S(=O)(c1ccc(OCC(O)CN2CCCCC2)cc1)c1ccc(OCC(O)CN2CCCCC2)cc1` (stereo not drawn), which “% Inhibition” value is on record?
**A.** 26%

**Q.** What about the Z score of the same compound?
**A.** -2.32

**Q.** For `O=C(NC[C@H](O)c1ccccc1)c1ccc(-c2ccco2)[nH]c1=O`, which “% Inhibition” value is on record?
**A.** 0%

**Q.** What about the Z score of the same compound?
**A.** -0.07

**Q.** What does the source list for `CCOC(=O)N1CCC(NC(=O)c2cc(NC(=O)CC)cc3nc(Cc4ccccc4)n(C)c23)CC1`?
**A.** % Inhibition: -3%; Z score: 0.63

**Q.** What does the source list for `Cc1ccc(F)cc1S(=O)(=O)N1CCC[C@H](C(=O)NC2CC2)C1`?
**A.** % Inhibition: 5%; Z score: -0.73

**Q.** What does the source list for `C[C@@H](C#N)NC(=O)c1ccc(Cl)c(F)c1`?
**A.** % Inhibition: -2%; Z score: 0.3

**Q.** `CC1CCN(C[C@]2(O)CCCN(CC(C)(C)C)C2=O)CC1` was tested. Which “% Inhibition” value did it give?
**A.** -7%

**Q.** What about the Z score of the same compound?
**A.** 1.03

**Q.** With `CC1CCCC2(C1)OCC(C(=O)NCC1CCCO1)N2C(=O)c1ccccc1F` (stereo not drawn) as the compound, how does the “% Inhibition” value read?
**A.** -9%

**Q.** And the Z score?
**A.** 1.16

**Q.** Which results are given for `O=C(C1CC1C1CCCCC1)N1CCC2(CCNCC2)C1` (stereo not drawn)?
**A.** % Inhibition: 2%; Z score: -0.31

**Q.** With `COc1cccc(CN2CCc3c(c(C(=O)N4CCC(O)CC4)nn3CCCc3ccccc3)C2)c1` as the compound, how does the “% Inhibition” value read?
**A.** 13%

**Q.** And the Z score?
**A.** -1.74

**Q.** For `COCc1n[nH]c(-c2ccc(N3CCCCC3)cc2)n1`, which “% Inhibition” value is on record?
**A.** -11%

**Q.** And the Z score?
**A.** 1.04

**Q.** With `Nc1ncncc1C(=O)N(Cc1ccccc1)C1CCCCC1` as the compound, how does the “% Inhibition” value read?
**A.** -4%

**Q.** And the Z score?
**A.** 0.63

**Q.** Which results are given for `O=C([C@@H]1CCCCC(=O)N1Cc1ccccc1)N1CCc2ccccc2C1`?
**A.** % Inhibition: -13%; Z score: 1.5

**Q.** What does the source list for `CCNc1n[nH]c(N)c1-c1nc(-c2ccccc2)no1`?
**A.** % Inhibition: -7%; Z score: 1

**Q.** With `Cc1noc(C)c1C1(O)CCCCCCCCCCC1` as the compound, how does the “% Inhibition” value read?
**A.** -2%

**Q.** And the Z score?
**A.** 0.23

**Q.** For `COc1ccc(S(=O)(=O)N2CCC(N3CCCCCC3)CC2)cc1`, which “% Inhibition” value is on record?
**A.** 6%

**Q.** And the Z score?
**A.** -0.98

**Q.** Which results are given for `CN(Cc1ccccc1)c1ncccc1CNC(=O)CCC(N)=O`?
**A.** % Inhibition: 5%; Z score: -0.95

**Q.** For `Cc1cc(C)nc(NC2=NCC(=O)N2CCc2c[nH]c3ccccc23)n1`, which “% Inhibition” value is on record?
**A.** 2%

**Q.** What about the Z score of the same compound?
**A.** -0.3

**Q.** What does the source list for `CN(C(=O)Cc1ccc(O)cc1)C1(C#N)CCC1`?
**A.** % Inhibition: -9%; Z score: 1.72

**Q.** For `CN1CCC[C@H]1c1nc(C2CN(C(=O)c3ccco3)C2)no1`, which “% Inhibition” value is on record?
**A.** -11%

**Q.** And the Z score?
**A.** 1.28

**Q.** Which results are given for `COC[C@@H](c1ccccn1)N(C)Cc1noc(C(C)C)n1`?
**A.** % Inhibition: 8%; Z score: -1.25

**Q.** What does the source list for `Cc1cc(NC(=O)CCN2CC(Cc3ccccc3)C2)no1`?
**A.** % Inhibition: -6%; Z score: 1.04

**Q.** What does the source list for `Cc1cc(=O)[nH]c(-n2nc(-c3ccco3)cc2N)n1`?
**A.** % Inhibition: -12%; Z score: 1.63

**Q.** Which “% Inhibition” value does the source give for `FC(F)(F)c1ccc(-c2nc(-c3cnccn3)no2)cn1` here?
**A.** -2%

**Q.** And the Z score?
**A.** 0.2

**Q.** With `O=C(c1cnn2c1OCCC2)N1CC[C@H](Oc2cnccn2)C1` as the compound, how does the “% Inhibition” value read?
**A.** -8%

**Q.** And the Z score?
**A.** 0.9

**Q.** Which results are given for `Cc1nccc(CNC(=O)N(C)C2CCCCCCC2)n1`?
**A.** % Inhibition: 12%; Z score: -1.38

**Q.** `CO[C@H]1CCCC[C@@H]1NC(=O)N(C)Cc1ccn(C)n1` was tested. Which “% Inhibition” value did it give?
**A.** -6%

**Q.** What about the Z score of the same compound?
**A.** 0.73

**Q.** `C[C@H](Nc1ccc(OCC(F)(F)C(F)F)nc1)C(=O)NC(N)=O` was tested. Which “% Inhibition” value did it give?
**A.** -19%

**Q.** And the Z score?
**A.** 1.76

**Q.** With `CN1CC(=O)N[C@@H]2CN(C(=O)c3cccc(=O)[nH]3)CC[C@@H]2OCc2cccc(c2)Oc2cccc(c2)CCC1=O` as the compound, how does the “% Inhibition” value read?
**A.** -4%

**Q.** And the Z score?
**A.** 0.75

**Q.** `Cc1nc(C)c(C)c(N2CCC[C@H]2c2ncc(Br)cn2)n1` was tested. Which “% Inhibition” value did it give?
**A.** -5%

**Q.** And the Z score?
**A.** 1.06

**Q.** With `O=C(Cc1cccs1)NCc1nccnc1-c1cccnc1` as the compound, how does the “% Inhibition” value read?
**A.** -18%

**Q.** What about the Z score of the same compound?
**A.** 2.07

— ChEMBL document CHEMBL4888484, “Replenishing the malaria drug discovery pipeline: Screening and hit evaluation of the MMV Hit Generation Library 1 (HGL1) against asexual blood stage Plasmodium falciparum ,using a nano luciferase reporter read-out” (2022)
